In patent US20180057551A1 (AMYLONIX, published 2018):
Numbering of substitutions follows the chain as printed.

B1: AQHDEALE-[ABPP113]-VDYV-[ABD]-YVPG (designed binder)
chain: AQHDEALEAGRERVYIPNLNADQLCAFIRSLEDDPSQSANLLAEAKKLNDAQAPASSSSGSSSSGRASAGGEIVYFPNLNADQLCAFIRSLEDDPSQSANLLAEAKKLNDAQAPKVDYVLAEAKVLANRELDKYGVSDYYKNLINNAKTVEGVKALIDEILAALPYVPG
notes: periplasmic ABD fusion
B2: AQHDEALE-[ABPP115]-VDYV-[ABD]-YVPG (designed binder)
chain: B1 chain with I16L, R29Q, P35S, D82H
notes: periplasmic ABD fusion
B3: AQHDEALE-[ABPP116]-VDYV-[ABD]-YVPG (designed binder)
chain: B1 chain with I16L, I73R, F76L, R89N
notes: periplasmic ABD fusion
B4: AQHDEALE-[ABPP117]-VDYV-[ABD]-YVPG (designed binder)
chain: B1 chain with I16L, D22H, P95S
notes: periplasmic ABD fusion
B5: AQHDEALE-[ABPP118]-VDYV-[ABD]-YVPG (designed binder)
chain: B1 chain with D82H
notes: periplasmic ABD fusion
B6: AQHDEALE-[ABPP119]-VDYV-[ABD]-YVPG (designed binder)
chain: B1 chain with I16L, R29Q, P35S, I73R, P77R, D82H
notes: periplasmic ABD fusion
B7: AQHDEALE-[ABPP120]-VDYV-[ABD]-YVPG (designed binder)
chain: B1 chain with R11G, R13I, I16F, D22H, R29Q, S38N, I73R
notes: periplasmic ABD fusion
B8: AQHDEALE-[ABPP121]-VDYV-[ABD]-YVPG (designed binder)
chain: B1 chain with I16L, P17Y, I73R, F76L
notes: periplasmic ABD fusion
B9: AQHDEALE-[ABPP122]-VDYV-[ABD]-YVPG (designed binder)
chain: B1 chain with R11G, I16F, D22H, I73R, F76L
notes: periplasmic ABD fusion
B10: AQHDEALE-[ABPP123]-VDYV-[ABD]-YVPG (designed binder)
chain: B1 chain with D22H, R89N
notes: periplasmic ABD fusion
B11: AQHDEALE-[ABPP124]-VDYV-[ABD]-YVPG (designed binder)
chain: B1 chain with R11G, I16L, S38N, I73R
notes: periplasmic ABD fusion
B12: AQHDEALE-[ABPP125]-VDYV-[ABD]-YVPG (designed binder)
chain: B1 chain with I16L, S38N, I73R
notes: periplasmic ABD fusion
B13: AQHDEALE-[ABPP126]-VDYV-[ABD]-YVPG (designed binder)
chain: B1 chain with I16L, D22H, R29Q, I73R, F76L
notes: periplasmic ABD fusion
B14: AQHDEALE-[ABPP127]-VDYV-[ABD]-YVPG (designed binder)
chain: B1 chain with I16L, D22H, P35S, R89N
notes: periplasmic ABD fusion
B15: AQHDEALE-[ABPP128]-VDYV-[ABD]-YVPG (designed binder)
chain: B1 chain with R11G, I16L, P17T, G71R, I73R, F76L, S98Q
notes: periplasmic ABD fusion
B16: AQHDEALE-[ABPP129]-VDYV-[ABD]-YVPG (designed binder)
chain: B1 chain with R11G, I16L, P17T, G71R, I73R, F76L, P95R, S98Q
notes: periplasmic ABD fusion

target: T1, human Aβ1-40 peptide (human, biotin at the C-terminus (flow cytometry, Examples 2-4) or at the N-terminus (SPR, ELISA); unlabeled plus Alexa488/Alexa647-labeled in FCS); test: sandwich ELISA, periplasmic ABD fusion, 2 nM biotinylated hAβ1-40
T1 construct: synthetic peptide (AnaSpec); one entry for all labelled forms, label named under assay; also called hAβ1-40; Aβ40
Protocol: Half-area 96-well ELISA plates (Costar, cat. no. 3690) were coated at 4° C. overnight with 2 μg/ml of an anti-ABD goat antibody (produced in-house) diluted in coating buffer (50 mM sodium carbonate, pH 9.6; Sigma, cat. no. C3041).

Row | Binder | ELISA response (absorbance 450 nm)
1 | B1 | ≥ 0.2 AU
2 | B2 | ≥ 0.2 AU
3 | B3 | ≥ 0.2 AU
4 | B4 | ≥ 0.2 AU
5 | B5 | ≥ 0.2 AU
6 | B6 | ≥ 0.2 AU
7 | B7 | ≥ 0.2 AU
8 | B8 | ≥ 0.2 AU
9 | B9 | ≥ 0.2 AU
10 | B10 | ≥ 0.2 AU
11 | B11 | ≥ 0.2 AU
12 | B12 | ≥ 0.2 AU
13 | B13 | ≥ 0.2 AU
14 | B14 | ≥ 0.2 AU
15 | B15 | ≥ 0.2 AU
16 | B16 | ≥ 0.2 AU

target: T1, human Aβ1-40 peptide; test: ELISA, fusion captured by anti-ABD antibody, biotinylated hAβ1-40 titrated
T1 sequence (peptide, as listed by the source): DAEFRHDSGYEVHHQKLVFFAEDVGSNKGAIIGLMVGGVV

Row | Binder | EC50
17 | B1 | 3.8 nM
18 | B2 | 3.9 nM
19 | B3 | 3.7 nM
20 | B4 | 6.4 nM
21 | B5 | 5.2 nM
22 | B6 | 3.9 nM
23 | B7 | 3.5 nM
24 | B8 | 59 nM
25 | B9 | 5.2 nM
26 | B10 | 5.4 nM
27 | B11 | 13 nM
28 | B12 | 4.3 nM
29 | B13 | 5.9 nM
30 | B14 | 5.7 nM
31 | B15 | 5.2 nM
32 | B16 | 9 nM

target: T1, human Aβ1-40 peptide; test: SPR Biacore 2000, periplasmic sample over immobilised biotinylated hAβ1-40

Row | Binder | Response RU
33 | B1 | 20.2 RU
34 | B2 | 13.3 RU
35 | B3 | 15.1 RU
36 | B4 | 9.7 RU
37 | B5 | 19.2 RU
38 | B6 | 15.6 RU
39 | B7 | 13.1 RU
40 | B8 | 47.5 RU
41 | B9 | 30.1 RU
42 | B10 | 15.5 RU
43 | B11 | 23.3 RU
44 | B12 | 18.4 RU
45 | B13 | 17.8 RU
46 | B14 | 9.1 RU
47 | B15 | 33 RU
48 | B16 | 35.8 RU

target: T2, anti-ABD goat antibody (produced in-house); test: SPR Biacore 2000, periplasmic sample over immobilised anti-ABD goat antibody
T2 construct: also called Anti-ABD surface

Row | Binder | Response RU
49 | B1 | 42 RU
50 | B2 | 39.7 RU
51 | B3 | 40 RU
52 | B4 | 31.6 RU
53 | B5 | 41.2 RU
54 | B6 | 31.8 RU
55 | B7 | 37.7 RU
56 | B8 | 47.4 RU
57 | B9 | 47.6 RU
58 | B10 | 38.8 RU
59 | B11 | 41 RU
60 | B12 | 38.6 RU
61 | B13 | 37.8 RU
62 | B14 | 31.9 RU
63 | B15 | 48.7 RU
64 | B16 | 43.6 RU
